Data on 82 compounds can be found in PubChem BioAssay AID1346428 (National Center for Advancing Translational Sciences (NCATS), 2018).

Structures are written as SMILES. “And” between values parts separate entries of the source, which are not always exact repeats. Identical values can stand only once. The campaign covered roughly 48,000 compounds. About 1,200 (2.5%) were called active. Roughly 2% stayed inconclusive and do not appear here.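 Rule for the calls: active = activation of at least 60% and not above a set upper limit (about 1 call in 100 departs from these limits); inconclusive = activation of 40% to 60%, or above that upper limit; inactive = activation under 40%.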 This is one part of the list.

Sequence of UniProt O75388 (O75388 whole entry, looked up, the tested form may be a part): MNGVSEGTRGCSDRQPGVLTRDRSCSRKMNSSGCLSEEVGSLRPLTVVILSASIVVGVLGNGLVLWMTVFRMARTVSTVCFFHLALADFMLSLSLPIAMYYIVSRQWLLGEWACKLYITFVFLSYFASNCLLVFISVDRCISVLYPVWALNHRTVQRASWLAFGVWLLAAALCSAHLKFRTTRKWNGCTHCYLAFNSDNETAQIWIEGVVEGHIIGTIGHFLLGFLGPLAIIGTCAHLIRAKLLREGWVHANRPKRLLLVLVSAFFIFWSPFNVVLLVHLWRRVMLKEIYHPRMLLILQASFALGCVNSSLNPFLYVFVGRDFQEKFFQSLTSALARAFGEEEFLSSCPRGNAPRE

In this experiment the target is Probable G-protein coupled receptor 32 (Homo sapiens) (UniProt O75388). The experiment can be described thus: qHTS for Agonists of Human Resolvin D1 Receptor DRV1. Note: 0% is about no effect. The conditions noted are these: CHO-K1 GPR32 beta-arrestin PathHunter luminescence, 90 min; at 76.9 µM; hits give high values; zero percent set by DMSO-only wells. The method in brief:
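GPR32 activation in stably transfected CHO-K1 cells, detected as beta-arrestin recruitment by enzyme-fragment complementation. Compound exposure: 90 min, 37 °C.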
(Quantitative high-throughput screening tests each substance at several concentrations.)
Consider `CCOC(=O)c1c(C)oc2c(Cl)cc(NS(=O)(=O)c3ccc(Cl)c(C)c3)cc12`, for which the activation was inactive: 30.9%.

Turning to `CCCCN(CCCC)S(=O)(=O)c1ccc2oc(C(=O)NCc3ccccc3)c(C)c2c1`, the activation was inactive: -14.4%.

With `CCN(CC)CCCNC(=O)Cn1c(-c2cccs2)cc2cc(Cl)ccc21`, the activation was inactive: 18.1%.

On to `O=C(CCCCn1c(=O)[nH]c2ccsc2c1=O)N1CCN(c2cccc(Cl)c2)CC1`, for which the activation was active: 71.9%.

In the case of `Cc1ccc(CSc2nc3ccc(NC(=O)COc4ccccc4F)cc3s2)cc1`, the activation is inactive: -11.2%.

Consider `CCOC(=O)c1c(C)[nH]c(C)c1S(=O)(=O)N(C)CC(=O)N1CCN(c2ccccc2OC)CC1`, for which the activation is inactive: 1.25%.

On to `CCOC(=O)N1CCN(C(=O)CN(c2ccc(C)cc2C)S(=O)(=O)c2ccccc2)CC1`, for which the activation was inactive: -0.525%.

Consider `O=C(CN1C(=O)C2(SCC(=O)N2c2cccc(Cl)c2)c2ccccc21)NC1CCCCC1` (configuration not stated), for which the activation was inactive: -15.7%.

Turning to `Cc1cc(C)c(/C=C/c2onc(C)c2S(=O)(=O)N2CCC(C(=O)NCc3ccco3)CC2)c(C)c1`, the activation was inactive: -31.1%.

As to `Cc1nn(CC(=O)N2CCN(c3ccccc3)CC2)c(=O)c2cccn12`, the activation was inactive: -2.84%.

As to `O=C(CNS(=O)(=O)c1ccc(Br)s1)N1CCN(c2ccccc2F)CC1`, the activation is inactive: 0.367%.

On to `Cc1ccc(-c2nc3c(cnn3-c3ccccc3)c(=O)n2-c2ccc(Cl)cc2)cc1`, for which the activation was inactive: -13.4%.

For the compound `O=C(COCc1cc(-c2ccco2)on1)Nc1ccc(OC(F)(F)F)cc1`, the activation is inactive: -5.73%.

Consider `COc1cccc(OC)c1C(=O)Nc1ccc2c(c1)CCCN2S(=O)(=O)c1ccc(C)cc1`, for which the activation is inactive: -17.3%.

Turning to `CCc1nn(CC(=O)NCc2cccc(OC)c2)c(=O)c2cc3cc(F)ccc3n12`, the activation is inactive: -19.3%.

For `Cc1oc(-c2ccc(Cl)cc2)nc1Cn1c(=O)cc(-c2ccccc2)c2c(C)nn(C)c21`, the activation is inactive: -2.43%.

Take `Cc1ccc(-n2ncc3c(NCCC4=CCCCC4)ncnc32)cc1C`: the activation is inactive: 1.08%.

Take `CCc1ccc(C(=O)COC(=O)C(NC(=O)C2CCC(C)CC2)C(C)C)cc1` (configuration not stated): the activation is inactive: 24.4%.

For the compound `CCN(c1ccccc1)S(=O)(=O)c1ccc(NC(=O)c2nc(S(C)(=O)=O)ncc2Cl)cc1`, the activation is inactive: -16.4%.

Regarding `COc1cc(CNC(=O)c2cnc3c(-c4cccc(C)c4)c(C)nn3c2C)cc(OC)c1OC`, the activation was inactive: -11%.

For `COc1ccc(-c2cc3ccc(O)c(CN4CCN(C)CC4)c3oc2=O)cc1OC`, the activation was inactive: 2.69%.

As to `CC(=O)Oc1cc(C(C)C)c(OCCN(C)C)cc1C`, the activation is inactive: 1.49% and inactive: -11.3%.

Regarding `CCCc1ccc(OCC(=O)Nc2sc3c(c2C(=O)OCC)CCC(C(C)(C)C)C3)cc1` (configuration not stated), the activation is inactive: 10.4%.

Turning to `CC(=O)Nc1ccc(Nc2ccc3cc(S(=O)(=O)N4CCCCC4)ccc3n2)cc1`, the activation is inactive: -11.6%.

Consider `O=C(NC1CC(=O)N(c2ccc(Cl)cc2)C1)c1cc2ccccc2o1` (configuration not stated), for which the activation is inactive: -6.89%.

Turning to `Nc1cc(=O)nc(SCC(=O)Nc2ccccc2)n1CCc1ccccc1`, the activation was inactive: -14.5%.

As for `Cc1cccc(CNS(=O)(=O)c2ccc(-c3coc(C)n3)cc2)c1`, the activation was active: 98.5%.

As for `CCOC(=O)c1c(-c2ccc(OC)c(OC)c2)csc1NC(=O)c1ccccc1F`, the activation is inactive: 2.96%.

For the compound `COc1ccc2c(c1)c1c(c(=O)n(-c3cccc(C)c3)c(=O)n1CC(=O)NCCC1=CCCCC1)n2C`, the activation was inactive: 3.55%.

As for `COc1ccccc1Nc1nc(-c2ccccc2)c(CC(=O)O)s1`, the activation was inactive: -7.89%.

Turning to `O=c1c2cccnc2n(Cc2cccc(F)c2)c(=O)n1Cc1ccc(F)cc1`, the activation is inactive: -17.1%.

Consider `COc1ccc2[nH]cc(CCNC(=O)Nc3cc(C)cc(C)c3)c2c1`, for which the activation is inactive: 17.6%.

For `CCC(Nc1ccc(-c2nc(-c3cccnc3)no2)cc1[N+](=O)[O-])c1ccccc1` (configuration not stated), the activation is inactive: -11.5%.

On to `Cc1ccc2nc3c(cc(C(=O)NC4CCCC4)c(=N)n3C(C)C)c(=O)n2c1`, for which the activation is inactive: -6.41%.

For `O=C1Cc2cc(S(=O)(=O)Nc3ccc(OC(F)(F)F)cc3)cc3c2N1CCC3`, the activation is inactive: -12.1%.

Consider `Cc1ccccc1OCC(=O)Nc1ccc2nc(SCC(=O)N3CCCC3)sc2c1`, for which the activation is inactive: 24.3%.

As to `CCOC(=O)c1cc(-c2ccc(OC)c(S(=O)(=O)N3CCN(c4ccccc4)CC3)c2)on1`, the activation was inactive: -10.9%.

For the compound `COc1ccc(S(=O)(=O)c2nnn(-c3cccc(Cl)c3)c2N)cc1`, the activation was inactive: -5.61%.

For the compound `COc1cc2c(cc1OC)C(CC(=O)O)N(C(=O)Nc1cc(OC)c(OC)c(OC)c1)CC2` (configuration not stated), the activation was inactive: -13.1%.

For the compound `Cc1ccc(C)c(N2CCN(CCCNC(=O)c3ccc4nc(N5CCC(C)CC5)sc4c3)CC2)c1`, the activation is inactive: -27.4%.

In the case of `CCc1ccc(C2=NN(CCC(=O)NCCc3ccccc3)C(=O)CC2)cc1`, the activation was inactive: -27.5%.

For the compound `CCc1c(C)c2cc3c(c(C)c2oc1=O)OCN(CCc1ccc(OC)c(OC)c1)C3`, the activation was inactive: 8.06%.

In the case of `CC(=O)c1ccc(Nc2cc(C)nc3nc(Cc4ccccc4)nn23)cc1`, the activation was inactive: -2.99%.

For the compound `CCc1cccc(NC(=O)C(Cc2ccccc2)NS(=O)(=O)c2cccs2)c1` (configuration not stated), the activation is inactive: 48.7%.

Take `COc1ccc(-n2c(=O)c3c4c(sc3n(Cc3ccccc3C)c2=O)CCCC4)c(OC)c1`: the activation was inactive: -9.5%.

Regarding `COc1ccc(N(CC(=O)NCCc2ccccc2)S(=O)(=O)c2c(C)nn(C)c2C)cc1`, the activation is inactive: -5.5%.

With `CCCn1c2ccccc2c2cnn(CC(=O)Nc3cc(OC)c(OC)c(OC)c3)c(=O)c21`, the activation was inactive: -13.8%.

As for `NS(=O)(=O)c1ccc(NC(=O)CCC(=O)O)cc1`, the activation is inactive: -2.15%.

With `Cc1ccc(N2CCN(C(=O)Cn3ncc4c([nH]c5ccc(C)cc54)c3=O)CC2)c(C)c1`, the activation is inactive: 3.99%.

For `CCC1(C)CC(=O)c2c(ccc3oc(C(=O)Nc4ccc(C(C)=O)cc4)c(C)c23)O1` (configuration not stated), the activation is inactive: -15.8%.

Take `CCOc1ccc(C(=O)NCCc2csc(-c3cccc(C)c3)n2)cc1`: the activation was inactive: -8.8%.

`CC(C)CC(=O)Nc1nnc(S(=O)(=O)N2c3ccccc3CC2C)s1` (configuration not stated): the activation is inactive: -2.69%.

Turning to `CCc1nc2ccc(C(=O)N3CCN(c4cccc(Cl)c4)CC3)cc2nc1CC`, the activation is inactive: -29.3%.

Take `CC(C)c1ccc(Nc2sc(C(=O)c3ccccc3)c(N)c2S(=O)(=O)c2ccccc2)cc1`: the activation is inactive: -1.26%.

In the case of `CCOC(=O)c1c(NC(=O)COc2ccccc2)sc(C(C)=O)c1C`, the activation is inactive: 8.88%.

In the case of `CCN(C(=O)Cn1nc(Cc2ccncc2)c2ccccc2c1=O)c1ccc(OC)cc1`, the activation is inactive: -18%.

For `COc1cc(C2CC(=O)c3c([nH]c(C(=O)OC4CCCC4)c3C)C2)cc(OC)c1OC` (configuration not stated), the activation is inactive: 30.6%.

`COC(=O)c1c(NC(=O)c2ccc(C(C)(C)C)cc2)sc2c1CCC(C)C2` (configuration not stated): the activation was inactive: -6.04%.

In the case of `CC[C@@]1(O)C(=O)OCc2c1cc1n(c2=O)Cc2c-1nc1ccccc1c2/C=N/OC(C)(C)C`, the activation is inactive: 17.5%.

Take `O=C(CSc1nc(=O)n(Cc2ccncc2)c2c1CCC2)Nc1cccc(F)c1`: the activation is inactive: 1.27%.

In the case of `CCOc1ccc(CCNC(=O)c2ccc(CSCc3ccccc3C)o2)cc1OCC`, the activation was inactive: -25.2%.

On to `Clc1ccc(-c2cn3cc(Cc4ccccc4)sc3n2)cc1`, for which the activation was inactive: 34.9%.

`CCc1ccc(NC(=O)CNC(=O)Cn2c(C)cc3ccccc3c2=O)cc1`: the activation was inactive: -0.184%.

In the case of `CCN(C(=O)C(NS(=O)(=O)c1ccc(Br)s1)c1ccccc1)c1ccc(C)c(C)c1` (configuration not stated), the activation was inactive: -40.3%.

Turning to `CC1(C)CC(=O)c2cc(-c3nc(-c4ccc(F)cc4)cs3)c(=O)[nH]c2C1`, the activation was inactive: -18.4%.

Consider `COc1ccc(C)cc1NC(=O)Cn1cc(S(=O)(=O)N2CCC(C)CC2)c2ccccc2c1=O`, for which the activation is inactive: -19.3%.

For the compound `Cc1cc(C)cc(OCC(=O)N2CCC(c3nc4ccccc4o3)CC2)c1`, the activation is inactive: -24%.

As to `COC(=O)c1ccccc1NC(=O)C(Cc1ccccc1)N1Cc2ccccc2C1=O` (configuration not stated), the activation is inactive: -26.6%.

Turning to `CCC(=O)N1c2ccccc2CC1C(=O)NCCN1CCN(c2cc(Cl)ccc2C)CC1` (configuration not stated), the activation was active: 68.5%.

Regarding `CCOc1ccc(NC(=O)c2c(NCc3cc(OC)c(OC)cc3OC)sc3c2CCCC3)cc1`, the activation is inactive: -8.12%.

As for `CC(=O)c1cccc(NC(=O)c2ccc3c(c2)N(Cc2ccc(C)cc2)CCS3)c1`, the activation is inactive: -15.3%.

With `COc1ccc(CCNC(=O)Cn2c(=O)nc(-c3ccccc3)c3cc(Cl)ccc32)cc1OC`, the activation is inactive: -15.8%.

On to `CC(=O)Nc1ccc(S(=O)(=O)NCC2CCC(C(=O)NCCc3ccc(C)cc3)CC2)cc1` (configuration not stated), for which the activation is inactive: -6.41%.

Take `COc1ccc(NC(=O)Cn2c(-c3ccc(F)cc3)cc(C(C)=O)c2C)c(OC)c1`: the activation is inactive: -12%.

On to `O=S(=O)(c1ccccc1)n1nc(-c2ccc(Cl)cc2)nc1NCc1ccccc1`, for which the activation is inactive: -14.5%.

As to `CCCC1=Nc2cc(C(=O)NC3CCCCC3)ccc2Sc2ccc(C)cc21`, the activation was inactive: -23.8%.

In the case of `Cc1cc(C)c2c(=O)c3c(oc2c1)C(=O)N(CCCOC(C)C)C3c1ccccc1F` (configuration not stated), the activation is inactive: 10.4%.

Consider `COCCCNc1nc2c(c(=O)[nH]c(=O)n2C)n1CC(O)COc1ccc(Cl)cc1` (configuration not stated), for which the activation is inactive: -8.15%.

Regarding `COc1cccc(CC(=O)Nc2c(C(=O)N3CCN(c4ccccc4F)CC3)oc3ccccc23)c1`, the activation is inactive: -21.6%.

In the case of `N#C/C(=C\c1ccc(F)cc1)c1nc(-c2ccc(-c3ccccc3)cc2)cs1`, the activation was inactive: 5.07%.

In the case of `COc1cccc(CNC(=O)c2ccc3c(c2)sc2nc(-c4cccc(OC)c4)cn23)c1`, the activation was inactive: -8.73%.

On to `COc1ccc(N2CC(NC(=O)C(c3ccccc3)c3ccccc3)CC2=O)cc1` (configuration not stated), for which the activation is inactive: -26.3%.
